Measurements: patent EP4538286A1 (Adlai Nortye Biopharma Co., Ltd., dated 2025)
Positions count from the first letter of the chain named. Names and notes keep the numbering of the source.

B1: Abs-427 (Fc fusion)
chain: VIHVTKEVKEVATLSCGHNVSVEELAQTRIYWQKNKKMVLTMMSGDMNIWPEYKNRTIFDITNNLSIVILELRPSDEGTYECVVLKYEKDAFKREHLAEVTLSVKAD[human IgG4 Fc not listed]
notes: human IgG4 Fc fusion; also called CD80 IgV mutant E35N/A71E-IgG4 Fc fusion
B2: Abs-428 (Fc fusion)
chain: B1 chain with E71N
notes: human IgG4 Fc fusion; also called CD80 IgV mutant E35N/A71N-IgG4 Fc fusion
B3: Abs-429 (Fc fusion)
chain: B1 chain with E71Q
notes: human IgG4 Fc fusion; also called CD80 IgV mutant E35N/A71Q-IgG4 Fc fusion
B4: Abs-483 (Fc fusion)
chain: B1 chain with E71T
notes: human IgG4 Fc fusion; also called CD80 IgV mutant E35N/A71T-IgG4 Fc fusion

How the values were obtained:
[1] = target: T1, human PD-L1 protein (human, UniProt Q9NZQ7 fragment); test: ELISA, plate-coated human PD-L1
T1 construct: bought protein coated on the ELISA plate; also called human PDL1 antigen

[2] = target: PD-L1 on TCR activator PD-L1-CHO cells (UniProt Q9NZQ7); test: cell-based or functional assay

| Binder | Binding strength @ 100nM [1] [%] | EC50 [1] [nM] | EC50(nM), Jurkat-NFAT-Luc/CHO-PDL1 [2] [nM] | The highest induction relative to IgG control [2] [%] | binding result [1] |
| --- | --- | --- | --- | --- | --- |
| B1 | 400 | 26.4 | – | – | – |
| B2 | 400 | 26.9 | 4.2 | 200 | – |
| B3 | – | – | – | – | no binding |
| B4 | 700 | 22.9 | – | – | – |
